Assay results as given in PubChem BioAssay AID624172 (National Center for Advancing Translational Sciences (NCATS), 2012).
In all, about 380,000 compounds went through this assay and about 25 (0.007%) were called active. This list was built around the results that the source calls inconclusive (neither active nor inactive); the mix of calls is not that of the screen. Calls come from the whole dose curve; as a rule, active = well fitted activation curve with a large enough effect; inconclusive = small, poorly fitted or top-dose-only effect; inactive = no such curve, though single readings can be large or run the other way. Potencies of inconclusive entries are left out as doubtful fits.

Target: Glucagon-like peptide 1 receptor (Homo sapiens) (UniProt P43220)
Assay: qHTS of GLP-1 Receptor Agonists; for activation: % of control where 0% means no effect
Settings: HEK293 GLP-1R CRE-luciferase, luminescence, 4-6 h, cells express a hypersensitive GLP-1R form; activation: at 45.6 µM (top of the series) unless noted
Potency is the fitted concentration of half-maximal effect; tags give direction and shape of the fitted curve.

Chain of UniProt P43220 (P43220 whole entry, looked up): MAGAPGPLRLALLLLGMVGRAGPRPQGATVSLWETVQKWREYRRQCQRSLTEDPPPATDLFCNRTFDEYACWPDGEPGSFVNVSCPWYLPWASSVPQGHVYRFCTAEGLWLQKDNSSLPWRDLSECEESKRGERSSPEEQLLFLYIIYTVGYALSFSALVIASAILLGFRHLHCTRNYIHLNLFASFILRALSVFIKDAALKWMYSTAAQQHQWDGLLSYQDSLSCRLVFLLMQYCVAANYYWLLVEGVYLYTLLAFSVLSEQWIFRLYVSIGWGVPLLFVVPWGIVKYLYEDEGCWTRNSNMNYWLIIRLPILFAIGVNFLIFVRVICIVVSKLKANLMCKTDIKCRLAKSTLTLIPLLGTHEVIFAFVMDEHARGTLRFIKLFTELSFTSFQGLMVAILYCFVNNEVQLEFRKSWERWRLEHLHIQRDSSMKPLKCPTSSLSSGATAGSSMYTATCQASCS

SMILES	activation	Potency
Cc1ccc(CNC(=O)C2CC(=O)N(CCC(C)C)C2)cc1 (centres undefined)	inactive: 1.17%	
Cc1c(C)c2ccc(OCC(=O)c3ccccc3)cc2oc1=O	inactive: -2.1%	
COCCCn1c(SCC(=O)OC2CCCCC2)nnc1-c1ccco1	inactive: 16.3%	
CCNC(=O)C1(C)CCCN(Cc2ccc(-n3ccnc3)cc2)C1 (centres undefined)		inconclusive [activator, single point]
N/C(=N/OCC(=O)Nc1cccc2ccccc12)c1nonc1N	inactive: 0.544%	
COc1cc2c(cc1OC)-c1cc(NC3CCCCCCC3)nc(=O)n1CC2		inconclusive [activator, full curve, poor fit]
CN(C)c1ccc(CNC(=O)C2(C)Cc3c(-c4cccc(C(F)(F)F)c4)ccnc3O2)cc1 (centres undefined)	inactive: -6.66%	
COc1ccc(-c2cc(C(F)(F)F)nc(SCC(=O)N(C)Cc3cn(C)nc3C)n2)cc1OC		inconclusive [activator, single point]
CCOC(=O)c1cc2c(ccn2C)n1CC(=O)Nc1ccc(F)cc1	inactive: 2.19%	
COc1ccc(-c2nn3c(-c4ccccc4)nnc3s2)cc1OC		inconclusive [activator, partial curve, poor fit]
CCn1c(COc2ccccc2C)nc2ccccc21		inconclusive [activator, partial curve, poor fit]
CC(C)CCOC(=O)C1[C@H]2C(=O)N(Cc3cccs3)C[C@]23C=C[C@H]1O3 (some centres undefined)		inconclusive [activator, partial curve, poor fit]
COc1ccc(-c2cc(C(=O)N3CCCCCC3)c3ccccc3n2)cc1		inconclusive [activator, partial curve, poor fit]
COc1ccc(Cn2c(C3CC3)nc3ccc(NC(=O)c4cccnc4)cc3c2=O)cc1		inconclusive [activator, single point]
COc1ccc(C2=NN(C(C)=O)C(c3cccs3)C2)cc1OC (centres undefined)		inconclusive [activator, partial curve, poor fit]
COc1ccc(C(=O)NCC2(c3ccc(OC)c(OC)c3)CCCC2)cc1OC		inconclusive [activator, partial curve]
Cc1ccccc1-c1nnc(SCCOc2ccc3c(C)cc(=O)oc3c2)o1	inactive: 3.78%	
CCOC(=O)c1ccc(CNC(=O)CSc2nc(NC(=O)c3ccccc3)c3c(C)c(C)oc3n2)cc1		inconclusive [activator, full curve, poor fit]
CCOC(=O)c1sc2nc(C)cc(C)c2c1N		inconclusive [activator, single point]
